Laboratory results published in the supplement of paper PMC10126150.
Sequences with one replicate were seen in a single cluster, so their values are uncertain.

System: ATP
Assay: switch fluorescence ratio, 500 uM ATP over buffer (Cy3 cluster intensity, sum of 5 cycles each) (fold (ratio)); higher = stronger signal-on switching upon ATP binding; sequences stand for … in TCGTCGGCAGCGTCAGATGTGTATAAGAGACAGTTTTTTTTTTTTTTTTTTTTTTTTT…TC
Conditions: aptamer strand: ATP DNA aptamer (quencher-CACCTGGGGGAGTATTGCGGAGGAAGG + anchor), 100 nM annealed; ATP concentration: 500 uM; one replicate
Outline: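 Imaging in selection buffer was followed by imaging after 15 min with 500 uM ATP at 22 °C, for Cy3-labelled switching-strand clusters annealed to 100 nM quencher-labelled ATP aptamer on a modified Illumina MiSeq flow-cell. Five of these buffer/ATP cycles ran, separated by NaOH stripping and re-annealing. The fluorescence ratio per cluster is summed target-cycle over summed buffer-cycle Cy3 intensity, averaged per switch-domain sequence; clusters outside 100-1000 RFU were removed.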
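Further: ATP exposure 15 min at 22 °C before imaging.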

Row | Sequence | switch fluorescence ratio
1 | CGTTGCGACG | 0.967
2 | AGGGCGATGC | 1.13
3 | CGATTTGGTA | 0.992
4 | TCAAGTGTCT | 0.948
5 | GGGCTTTGAA | 1
6 | CAATTTGATT | 1.02
7 | GTCTCTAAAT | 0.998
8 | ATCACGGGAG | 1.07
9 | CATTCAGCCA | 1.02
10 | CATTTACCG | 1.05
11 | CCACATATAG | 1.4
12 | CTAGGACGAG | 0.996
13 | AACCGGGGAT | 1
14 | CTTTGTCCTC | 0.973
15 | GGCTCTGGGA | 1.03
16 | AGTGTAAGAG | 0.987
17 | TCGCGGCCGG | 0.962
18 | CGCGTTGTAC | 1.54
19 | CGCTAATAAA | 1.09
20 | TAGAAGGGCG | 1.01
21 | GGTTATCCGA | 0.979
22 | CAAGACAAGC | 1.08
23 | TTTAATCGTC | 1.08
24 | CAGCACGCGG | 1.01
25 | TGGCTTGATG | 1
26 | CTTGATTATT | 0.993

Row | Sequence | switch fluorescence ratio
27 | TTCCCCTCGC | 1.1
28 | ATAGCTAGAT | 0.997
29 | GATAGACCGT | 1.01
30 | CCCGCGGATA | 3.4
31 | ACCTTCGCGT | 1.89
32 | GCTGCAAGTC | 1.27
33 | GTCAGACTAC | 1.02
34 | AGGTCCCAGG | 2.47
35 | CGTGCCGGTG | 1.02
36 | CAACCCATGC | 1.43
37 | GCGGTTGCTT | 1
38 | ATTAGTTTCT | 0.974
39 | AATACTGGAC | 1.24
40 | GGGTCCCCTA | 0.931
41 | AACATCTAAT | 0.977
42 | AATCGGGGAC | 0.957
43 | GGGACATATG | 0.984
44 | GGTCGTGAAC | 1.01
45 | ATGCTGACGG | 1.05
46 | GCAATCTAGT | 1.11
47 | GATACACGAG | 1.03
48 | AGCTTGGTGG | 0.978
49 | CATGCGCTTT | 1.37
50 | TCTTGGCAGT | 1.1
51 | AAGCCAAGTG | 1.05
52 | TATGTTAGCG | 1

Row | Sequence | switch fluorescence ratio
53 | TTCTTGCCCT | 1.02
54 | ACTAATACG | 1.12
55 | AGTTGTACTG | 1.04
56 | ACATTGACTC | 1.18
57 | CGGCTCGTAA | 1.22
58 | CTTCGCCTAT | 1.55
59 | TTAAGAACTG | 0.976
60 | CATACCTTAA | 1.08
61 | GGTGCAAATC | 1.17
62 | CTATGTTTGT | 0.983
63 | GCTTTTTTTC | 0.997
64 | AGTTCTGCAG | 1
65 | AGGGGAGGA | 1.03
66 | CGGCCCGCCG | 0.99
67 | AGAGTTGTCA | 1.06
68 | CAACCGATGG | 1.02
69 | ACAATTCGGG | 1.04
70 | GCGCTCCGTG | 1.05
71 | CAGACTCGTA | 0.968
72 | ATGAACGCGA | 1.08
73 | CGAATGAG | 0.982
74 | AAAACGGTAT | 1.01
75 | GATAATTCAG | 1
76 | AGTATAGTG | 0.966
77 | CGCGGGTTA | 0.997
78 | TTTGATGCCA | 1.01

Row | Sequence | switch fluorescence ratio
79 | GATACGAGGG | 1.05
80 | ACCGGTGG | 0.95
81 | AATATTAGAC | 0.979
82 | ACTGTACCTC | 1.43
83 | AAGTCCGCCC | 1.46
84 | GCTATGGAAG | 1.01
85 | ATCATATAGG | 1.02
86 | GTCTCAATTA | 0.963
87 | CGTCGTTCGA | 0.989
88 | TTAGACAGCT | 1.03
89 | AAGGACCGCC | 1.17
90 | CGGATTGCAT | 1.05
91 | TCTATATGCG | 0.995
92 | AGAGGTCTGC | 0.961
93 | TTACTTGCG | 1.01
94 | CTCTCAAAAT | 2.22
95 | GATACCTATC | 1.01
96 | CAACTGAACA | 1.04
97 | TTCTAGGGTT | 0.951
98 | CAACGCGGCA | 1.17
99 | ACCGAAATGG | 1.22
100 | TATAGCCCCG | 1.06
101 | GGGTTGCACC | 0.961
102 | TGGGGTCTTA | 1.07
103 | ACCGGCATTG | 1.02
104 | AAAAAGTAAC | 1.03

Row | Sequence | switch fluorescence ratio
105 | ACATGAAATT | 1.02
106 | ACATGTGTAT | 0.972
107 | TTCCAAAGGG | 0.968
108 | GTACTGGCTG | 0.95
109 | CTACCATGAC | 2.03
110 | GCAGTTTCT | 1.05
111 | AGTTTTACGG | 0.972
112 | CGCTTTGGGA | 1.04
113 | GGGACGTAGT | 0.916
114 | GTCTGCGCAT | 1.67
115 | ATTAGGCTGT | 0.984
116 | CATCGTGTTG | 1.03
117 | TTTCTCGAAC | 0.985
118 | CGCTTTTCAC | 1.36
119 | ACTGTTGTCG | 0.967
120 | TCAGCCATGC | 1.31
121 | GTTAAGAT | 0.959
122 | GGCTTTCTG | 1.01
123 | CCCGTGGTTG | 1.06
124 | TCAAACATGT | 0.984
125 | TAGCTAATCT | 1.02
126 | CTGTCTTTTT | 1.02
127 | TACGCCTATA | 1.05
128 | TGATCAAGCT | 1.03
129 | ACACCAGCGC | 1.12
130 | AAAGGTAAG | 1.01

Row | Sequence | switch fluorescence ratio
131 | TTGCCAGTCG | 0.944
132 | TGAACCGTTG | 1.03
133 | TTCCCTTGGC | 0.93
134 | CAATTTAACC | 1.02
135 | CGTCTGCCCT | 1.01
136 | ACGGATGGGA | 1.03
137 | CCATATGCCT | 1
138 | TTCTCATCT | 0.993
139 | TATTTCGCCA | 2.9
140 | GAAGCTCGGA | 0.925
141 | CCTAGATAAG | 0.964
142 | GGCGGAAATT | 0.95
143 | AAGGGGGA | 1.02
144 | CTAATAGAGG | 1
145 | CACTCGTTAT | 0.951
146 | GTGCATATAT | 1.11
147 | CAGTATAAAA | 0.998
148 | GCAATGAACA | 1.02
149 | CTACGTACCG | 1.4
150 | TATGTCTGT | 1.02
151 | GTACTTAACG | 1.13
152 | TGGCAAGTTG | 0.993
153 | CGAACGTCTT | 1.06
